# Source: article PMC4242493
# The list shows a part of the results. The list includes weakly bound sequences.
# Target: MaxL homodimer (UniProt P61244)
# Assay: universal protein-binding microarray (PBM)
# Settings: PBS-based mixture, 10 nM His-tagged protein dimer, 2% milk, 200 ng/uL BSA, 50 ng/uL salmon testes DNA, 0.02% TX-100; detection with Alexa 488 anti-His …; high values mean tight binding; most listed sequences are background and not binding sites; double strand, one strand shown
# Chain of UniProt P61244 (P61244 whole entry): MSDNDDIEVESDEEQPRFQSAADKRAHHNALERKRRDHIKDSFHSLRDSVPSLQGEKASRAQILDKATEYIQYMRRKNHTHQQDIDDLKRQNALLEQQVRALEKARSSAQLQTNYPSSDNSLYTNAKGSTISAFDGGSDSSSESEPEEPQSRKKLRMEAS
row,Sequence,binding signal (normalized occupancy)
1,GACCTTCA,0.0715
2,ATTGCTTA,0.0771
3,AGTTTGTA,0.0756
4,AGGGACAT,0.0787
5,AGGTCGCC,0.0768
6,GCAACGGA,0.0695
7,GATGTCAC,0.0839
8,GTCAACAA,0.0764
9,GGTTGAAA,0.0729
10,AGGATTAT,0.079
11,CTGGCTGC,0.0736
12,CAGTGTAC,0.0781
13,GAACAACC,0.0784
14,AGGTGTTA,0.0801
15,CATCAACG,0.0728
16,ACTTGTCA,0.0792
17,ACTTGAAG,0.0774
18,TATTTAAA,0.0789
19,CCGGAACA,0.0684
20,TAGTCCGA,0.0692
21,TAAGTAAA,0.0749
22,TACCGTGA,0.0755
23,CTCCCGAA,0.0776
24,CCGTTCAC,0.0771
25,AGACTACT,0.0721

row,Sequence,binding signal (normalized occupancy)
1,CTGTGTTA,0.079
2,CCGTACGG,0.0696
3,ATAGGTCC,0.0741
4,CAAAAAGC,0.0682
5,ACTAGTCG,0.0757
6,AAGGCCAC,0.0803
7,TATAGTCA,0.0774
8,GAGCAATC,0.0703
9,CGACGACC,0.0732
10,GTCCTAAC,0.0727
11,GGAGCGCA,0.0679
12,AATAAAAC,0.0798
13,AATTAGTG,0.0813
14,ATACGTTC,0.0794
15,AGGACGAC,0.0761
16,ACTACCTC,0.0755
17,GAGTAGTA,0.0771
18,CCTATTTA,0.0772
19,CTGATACC,0.0855
20,ACACAGCC,0.0758
21,CATTGTTA,0.0806
22,AGGAGTAG,0.0709
23,ACGGTCGA,0.0702
24,AAGGTTAG,0.0752
25,AATCAAGT,0.0689

row,Sequence,binding signal (normalized occupancy)
1,CATGATTC,0.0938
2,AGTCGACC,0.0697
3,GGTATGAA,0.0841
4,GGCGGTGA,0.0725
5,AAAGACTA,0.0705
6,GTGCTGCA,0.0891
7,CGTCGCTA,0.0683
8,ATTAAGCC,0.0713
9,AGGTACAC,0.0784
10,ATGCCAAA,0.0777
11,AGTATTCC,0.0798
12,CAAGATTA,0.0746
13,TCACGAAA,0.0755
14,GGAACGCA,0.0749
15,GTACCGAA,0.0718
16,AGGTTAGC,0.0738
17,CGAATCAC,0.0792
18,TAGAAGCA,0.082
19,CTATCCAA,0.0781
20,TGCACAAA,0.0748
21,AACCGTGT,0.0763
22,CAAGACCC,0.0703
23,CGAGCCAG,0.0662
24,AATGCGAA,0.0737
25,CTAGCATC,0.0748

row,Sequence,binding signal (normalized occupancy)
1,CGCTTGCC,0.0718
2,GTGACCCA,0.0762
3,CCTCCTCA,0.0764
4,GACATGCA,0.0909
5,AGGCCATC,0.0776
6,CGGCACGA,0.0862
7,CACTTAGC,0.0722
8,CCAGCCCC,0.0751
9,AACGACTG,0.0722
10,TACCCAAA,0.074
11,AACCCCTC,0.0767
12,ACATGCTC,0.106
13,ATTTCTTA,0.0753
14,CGGGCATA,0.0768
15,AAATTCTT,0.0674
16,CTAGAAGC,0.07
17,CGAGGTCC,0.0694
18,GCGATTCA,0.0717
19,AATCGATT,0.0687
20,AAGTCACA,0.0854
21,CAACCGAA,0.0693
22,CATTTCAA,0.0846
23,CGTCCGAA,0.0722
24,CGAAGGAC,0.0679
25,CTTGGTTC,0.0717

row,Sequence,binding signal (normalized occupancy)
1,TACTCCAA,0.074
2,CGGCACCC,0.0747
3,CCTCGAAA,0.0699
4,CGCACCTA,0.0751
5,AGGACTAT,0.0778
6,CGTGATGA,0.0882
7,ATAGGGCA,0.0795
8,CGACTGAC,0.0719
9,GCGCTAAA,0.0748
10,GATACCGC,0.0772
11,AGATGAGC,0.0754
12,CACTTAAG,0.0753
13,CTTATCGC,0.0737
14,ACAGGCTG,0.0736
15,AGAAAGCT,0.0689
16,CCCGTCTC,0.0737
17,GTACCCGA,0.074
18,ACCAGGGG,0.0738
19,CGTTTATA,0.08
20,GGACTGTA,0.077
21,CCCCGATA,0.0749
22,ATGTTTTC,0.0835
23,CTTACCCC,0.0826
24,CCGCCGTC,0.0691
25,ACGCCAAC,0.0724

row,Sequence,binding signal (normalized occupancy)
1,ACGGGATG,0.0782
2,ACATCATG,0.0903
3,AGATAAGA,0.0781
4,AGTAGAAC,0.075
5,GCTGAGCA,0.0743
6,GTTATAAC,0.0842
7,ATCGAGAT,0.0791
8,AAAGGGCG,0.0669
9,CGCAGGGC,0.0662
10,GCAGGTAC,0.0748
11,ATAGCTAG,0.0778
12,GCCACCGA,0.0708
13,GGGTGTTA,0.0779
14,TCAGTCAA,0.0745
15,AGAAGGGC,0.0743
16,CCTCATTC,0.0779
17,GACGGGGA,0.0727
18,ACGGGCTC,0.0639
19,CGCAAACG,0.0728
20,GAGCAAAA,0.0707
21,ACGCTATC,0.0885
22,CGCTTAGC,0.064
23,ACGCACAG,0.076
24,AAATTTTG,0.0722
25,ATGTGTGA,0.102

row,Sequence,binding signal (normalized occupancy)
1,TTTATAAA,0.073
2,ATAGGGGC,0.0792
3,AGCACTCC,0.0771
4,AGACTCGG,0.068
5,CCAAACCA,0.0713
6,CTTGTGCC,0.0778
7,GGCCACTA,0.0777
8,TCTGTTCA,0.0799
9,AAGTCACC,0.0767
10,CGACTATC,0.077
11,ATCCAAAA,0.074
12,CCTTCTGA,0.0706
13,CCCTGCGC,0.0693
14,AAACTCAT,0.0797
15,CACGTGTC,0.574
16,CATTGTAG,0.0823
17,GCAATACA,0.0803
18,ACCAGATG,0.0885
19,ACCTGACC,0.0857
20,AACAGGTC,0.0733
21,ACAAGCCG,0.0707
22,CTATTGAA,0.0752
23,CCTCTCTC,0.0759
24,TACACTCA,0.0791
25,GTGCAGGA,0.0768

row,Sequence,binding signal (normalized occupancy)
1,CCGAATGC,0.0707
2,CCTATTCG,0.0736
3,CAGCGGGG,0.0742
4,AACCGGAC,0.0693
5,AGCGAGCG,0.0699
6,CCAGAGGC,0.0672
7,GTACAAAC,0.0733
8,ACACACTG,0.0802
9,CCAGACAA,0.0724
10,CGAAAATC,0.0726
11,ACGTTCCA,0.0802
12,CAGGGTAA,0.0757
13,AGAACTCA,0.071
14,CAGATCGA,0.0712
15,GCTAACCA,0.0769
16,AGTATAGA,0.0782
17,AATGATAA,0.0818
18,CGGGGCGA,0.0669
19,GGCTTGCA,0.071
20,CGAACAGC,0.074
21,GGCCCATA,0.0724
22,ACACACCT,0.0881
23,TAACAACA,0.0722
24,GTTATAAA,0.0765
25,GAGTGACC,0.0722

row,Sequence,binding signal (normalized occupancy)
1,GGCTGAGA,0.0684
2,AGGGACTC,0.0701
3,AACAAGGG,0.0725
4,CAGGTTGA,0.0814
5,CGCATATA,0.0794
6,GGAGAGAA,0.0761
7,AACTAGGC,0.0709
8,CGCGTAAA,0.0695
9,GCTACTAC,0.0796
10,TGCCCACA,0.0859
11,ACAGCTCG,0.071
12,AGTAACGG,0.0695
13,CAAATCAC,0.0844
14,GCACCTAC,0.0737
15,GATCGCAA,0.0727
16,GGAAAACC,0.0739
17,AGTTTCTC,0.0717
18,ATGTGTCC,0.0851
19,CGGGGCTA,0.0717
